The other results are listed elsewhere or left out. Repeats are few or missing, and single values can be far off.
Each compound was assayed on G361 (assay: cell count relative to DMSO control; melanoma cells; higher = more viable cells). Details: library dose: standard library concentration; 72 h.
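Also: cells treated in 1,536-well plates, then fixed and DAPI-stained, with nuclei counted from automated high-throughput microscope images.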

| SMILES | cell count |
| --- | --- |
| Cn1nnc2c(C(N)=O)ncn2c1=O [temozolomide] + Oc1nc(-c2ccc(C(F)(F)F)cc2)nc2c1CSCC2 [XAV939] (first compound 10 µM, partner dose 10 µM) | 101% |
| O=C(Nc1cc(C(F)(F)F)cc(C(F)(F)F)c1)c1cc(Cl)ccc1O + C[C@]1(c2nc3c(C(N)=O)cccc3[nH]2)CCCN1 [Veliparib] (first compound 0.08 µM, partner dose 7 µM) | 75.6% |
| O=C(O)c1ccc2c(c1)nc(Nc1cccc(Cl)c1)c1ccncc12 + O=C(Nc1ccccc1)c1cc([N+](=O)[O-])ccc1Cl [GW9662] (first compound 2 µM, partner dose 10 µM) | 59.4% |
| O=C(O)c1ccc2c(c1)nc(Nc1cccc(Cl)c1)c1ccncc12 + Cn1cc(/C=C2\C(=O)Nc3cccnc32)c2ccccc21 [GW441756] (first compound 2 µM, partner dose 2 µM) | 69.7% |
| O=C(O)[C@@H]1[O][Sb](=[O])([O][Sb]2(=[O])[O][C@H]([C@H](O)CO)[C@H](O)[C@H](C(=O)O)[O]2)[O][C@H]([C@H](O)CO)[C@@H]1O (stereo not given in full) [stibogluconate] + COc1ccc2c(c1)CCC1C2CCC2(C)C(NCCCCCCN3C(=O)C=CC3=O)CCC12 [U73122] (first compound 10 µM, partner dose 2 µM) | 120% |

The compounds below were run on IPC-298 in the same assay as above. Details: library dose: standard library concentration; 72 h.

| SMILES | cell count |
| --- | --- |
| O=C(Nc1cc(C(F)(F)F)cc(C(F)(F)F)c1)c1cc(Cl)ccc1O + Nc1ncn([C@H]2C[C@H](O)[C@@H](CO)O2)c(=O)n1 [decitabine] (first compound 0.08 µM, partner dose 0.5 µM) | 53.9% |
| O=C(O)[C@@H]1[O][Sb](=[O])([O][Sb]2(=[O])[O][C@H]([C@H](O)CO)[C@H](O)[C@H](C(=O)O)[O]2)[O][C@H]([C@H](O)CO)[C@@H]1O (stereo not given in full) [stibogluconate] + N#Cc1c(O)c2c(-c3ccc(-c4ccccc4O)cc3)csc2[nH]c1=O [A769662] (first compound 10 µM, partner dose 10 µM) | 105% |
| O=C(Nc1ccccc1)c1cc([N+](=O)[O-])ccc1Cl + Cc1cc([N+](=O)[O-])ccc1NS(=O)(=O)c1cc(Cl)ccc1Cl [FH535] (first compound 10 µM, partner dose 5 µM) | 61.9% |
| O=C(Nc1cc(C(F)(F)F)cc(C(F)(F)F)c1)c1cc(Cl)ccc1O + Nc1ccn([C@@H]2O[C@H](CO)[C@@H](O)C2(F)F)c(=O)n1 [gemcitabine] (first compound 0.08 µM, partner dose 0.002 µM) | 42% |
| O=C(Nc1cc(C(F)(F)F)cc(C(F)(F)F)c1)c1cc(Cl)ccc1O + C=CCn1c(=O)c2cnc(Nc3ccc(N4CCN(C)CC4)cc3)nc2n1-c1cccc(C(C)(C)O)n1 [MK1775] (first compound 0.08 µM, partner dose 0.1 µM) | 97.1% |
| O=C(Nc1cc(C(F)(F)F)cc(C(F)(F)F)c1)c1cc(Cl)ccc1O + CCCCCCCCCCCC1=C(O)C(=O)C=C(O)C1=O [Embelin] (first compound 0.08 µM, partner dose 6 µM) | 77.7% |
| Cn1nnc2c(C(N)=O)ncn2c1=O [temozolomide] + CCN(CC)CCCCNc1ncc2cc(-c3cc(OC)cc(OC)c3)c(NC(=O)NC(C)(C)C)nc2n1 [PD173074] (first compound 10 µM, partner dose 0.5 µM) | 84.8% |
| O=C(O)[C@@H]1[O][Sb](=[O])([O][Sb]2(=[O])[O][C@H]([C@H](O)CO)[C@H](O)[C@H](C(=O)O)[O]2)[O][C@H]([C@H](O)CO)[C@@H]1O (stereo not given in full) [stibogluconate] + Nc1ncn([C@H]2C[C@H](O)[C@@H](CO)O2)c(=O)n1 [decitabine] (first compound 10 µM, partner dose 0.5 µM) | 54.5% |
| O=C(O)c1ccc2c(c1)nc(Nc1cccc(Cl)c1)c1ccncc12 + C=CCn1c(=O)c2cnc(Nc3ccc(N4CCN(C)CC4)cc3)nc2n1-c1cccc(C(C)(C)O)n1 [MK1775] (first compound 2 µM, partner dose 0.1 µM) | 66.2% |
| O=C(O)c1ccc2c(c1)nc(Nc1cccc(Cl)c1)c1ccncc12 + COc1cc(N2CCC(N3CCN(C)CC3)CC2)ccc1Nc1ncc(Cl)c(Nc2ccccc2S(=O)(=O)C(C)C)n1 [NVP-TAE684] (first compound 2 µM, partner dose 0.4 µM) | 72.3% |

— the supplement of paper PMC4604168 (melanoma cell lines)
